According to the supplement of paper PMC11125491:
± gives the standard deviation of the averaged measurements. Growth of baker's yeast expressing single-residue variants of Pneumocystis jirovecii dihydrofolate reductase in 8.8 or 44 µM methotrexate (about 75% and 90% inhibition of the wild type). Selection coefficient per generation; 0 = like wild type, above 0 = less sensitive, below 0 = more sensitive or loss of function. No active / inactive call per row; the paper calls resistant above 0.220 (8.8 µM) or 0.243 (44 µM) together with a significance test. At 44 µM about 15% of codons end with one read or none, so the lowest values are floors (replicate rank correlation 0.74; 0.94 at 8.8 µM).

B1: UniProt A0EPZ9; numbered along this chain (parent)
chain: MDWQKSLTLIVALTLSRGIGLKNDLPWKLKSDMMFFSRVTSGLLVTRSTGQMNVVLMGRKTWESLPAHSRPLKNRINVVISRQEVLDLGGGAYHARSLDDALALLSQIYDSTSKIQLNRVFVIGGGELCKAAMEHSRLNRIIATVIHNEVDCDVFFPIDFRSSQSCLPWRKQDHSVLEAWVGSKVPQGKINENGFIYEFEMWIRDI

Variants of: B1
Assay: selection coefficient against synonymous wild-type codons (log2 per generation); higher = faster growth than wild type
Conditions: with Saccharomyces cerevisiae carrying the variant on a plasmid
Protocol: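 Pooled growth of yeast carrying single-residue variants of P. jirovecii dihydrofolate reductase (own DFR1 gene intact), two passages at 30 °C, three cultures, sequenced before and after. Codons with under 15 starting reads are left out; codons of one change are averaged.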

Variant	selection coefficient against synonymous wild-type codons (log2) (methotrexate 8.8 µM)	selection coefficient against synonymous wild-type codons (log2) (methotrexate 44 µM)
M201G	-0.0133 ± 0.043	-0.0776 ± 0.089
M201N	-0.0399 ± 0.04	-0.103 ± 0.098
M201T	0.076 ± 0.06	-0.0827 ± 0.17
M201E	-0.0113 ± 0.089	-0.0286 ± 0.19
M201H	0.0383 ± 0.16	-0.027 ± 0.093
M201R	-0.527 ± 0.13	-0.233 ± 0.09
M201S	0.0398 ± 0.071	-0.0401 ± 0.11
M201I	-0.22 ± 0.054	-0.249 ± 0.082
F195H	0.2 ± 0.028	0.171 ± 0.12
F195I	0.0408 ± 0.03	-0.0381 ± 0.092
F195S	0.184 ± 0.077	0.138 ± 0.15
F195Y	-0.0109 ± 0.02	-0.0959 ± 0.097
F195R	0.339 ± 0.04	0.341 ± 0.046
F195G	0.269 ± 0.061	0.256 ± 0.052
F195W	-0.0542 ± 0.032	0.00884 ± 0.35
F195K	0.244 ± 0.062	0.168 ± 0.062
F195V	0.0872 ± 0.031	0.0323 ± 0.068
F195Q	0.254 ± 0.054	0.238 ± 0.048
F195N	0.157 ± 0.092	0.112 ± 0.068
F195D	0.237 ± 0.073	0.163 ± 0.1
F195M	0.0486 ± 0.03	-0.0229 ± 0.08
F195C	0.14 ± 0.005	0.152 ± 0.011
F195L	0.000991 ± 0.048	-0.061 ± 0.062
F195P	0.348 ± 0.057	0.375 ± 0.014

Variant	selection coefficient against synonymous wild-type codons (log2) (methotrexate 8.8 µM)	selection coefficient against synonymous wild-type codons (log2) (methotrexate 44 µM)
F195E	0.309 ± 0.049	0.302 ± 0.047
F195T	0.123 ± 0.11	0.0563 ± 0.063
F195A	0.272 ± 0.047	0.207 ± 0.071
D205R	-0.276 ± 0.1	-0.266 ± 0.088
D205C	-0.259 ± 0.068	-0.24 ± 0.072
D205F	-0.517 ± 0.044	-0.335 ± 0.086
D205H	-0.197 ± 0.068	-0.24 ± 0.23
D205Q	-0.147 ± 0.15	-0.189 ± 0.21
D205G	-0.148 ± 0.06	-0.16 ± 0.091
D205K	-0.119 ± 0.047	-0.296 ± 0.073
D205M	-0.399 ± 0.026	-0.256 ± 0.14
D205N	-0.118 ± 0.062	-0.23 ± 0.14
D205A	-0.175 ± 0.08	-0.312 ± 0.13
D205E	-0.0762 ± 0.038	-0.125 ± 0.033
D205I	-0.367 ± 0.05	-0.415 ± 0.1
D205L	-0.456 ± 0.14	-0.253 ± 0.32
D205P	-0.127 ± 0.12	-0.143 ± 0.099
R204E	-0.187 ± 0.058	-0.139 ± 0.077
R204G	-0.272 ± 0.096	-0.292 ± 0.11
R204F	-0.426 ± 0.13	-0.475 ± 0.065
R204Q	-0.141 ± 0.14	-0.171 ± 0.14
R204V	-0.351 ± 0.062	-0.277 ± 0.12
R204H	-0.0629 ± 0.032	-0.0503 ± 0.098
R204N	-0.154 ± 0.06	-0.235 ± 0.13

Variant	selection coefficient against synonymous wild-type codons (log2) (methotrexate 8.8 µM)	selection coefficient against synonymous wild-type codons (log2) (methotrexate 44 µM)
R204A	-0.165 ± 0.086	-0.24 ± 0.1
R204W	-0.402 ± 0.065	-0.371 ± 0.11
R204Y	-0.357 ± 0.044	-0.192 ± 0.014
R204M	-0.291 ± 0.043	-0.261 ± 0.027
R204L	-0.378 ± 0.059	-0.317 ± 0.065
R204T	-0.182 ± 0.034	-0.18 ± 0.094
R204P	-0.0711 ± 0.079	-0.145 ± 0.12
R204C	-0.159 ± 0.051	-0.0609 ± 0.025
R204K	0.0549 ± 0.051	0.00733 ± 0.16
R204S	-0.176 ± 0.086	-0.231 ± 0.13
R204D	-0.364 ± 0.077	-0.363 ± 0.029
R204I	-0.405 ± 0.086	-0.388 ± 0.13
Y197Q	-0.205 ± 0.1	-0.214 ± 0.0094
Y197H	-0.185 ± 0.13	-0.158 ± 0.14
Y197S	-0.139 ± 0.098	-0.157 ± 0.1
Y197K	0.704 ± 0.067	0.927 ± 0.043
Y197D	-0.52 ± 0.046	-0.336 ± 0.086
Y197F	-0.159 ± 0.054	-0.218 ± 0.037
Y197I	-0.237 ± 0.041	-0.282 ± 0.13
Y197P	-0.154 ± 0.13	-0.152 ± 0.035
Y197V	-0.212 ± 0.072	-0.295 ± 0.16
Y197T	-0.0803 ± 0.04	-0.134 ± 0.2
Y197E	-0.0988 ± 0.057	-0.297 ± 0.037
Y197R	0.543 ± 0.049	0.668 ± 0.057

Variant	selection coefficient against synonymous wild-type codons (log2) (methotrexate 8.8 µM)	selection coefficient against synonymous wild-type codons (log2) (methotrexate 44 µM)
Y197N	-0.0201 ± 0.041	-0.28 ± 0.04
Y197A	-0.151 ± 0.086	-0.14 ± 0.13
Y197W	-0.0908 ± 0.056	-0.185 ± 0.067
Y197C	-0.145 ± 0.067	-0.185 ± 0.011
Y197G	0.0107 ± 0.066	-0.0688 ± 0.14
Y197M	-0.187 ± 0.072	-0.269 ± 0.023
Y197L	-0.292 ± 0.072	-0.208 ± 0.12
N193G	0.00205 ± 0.052	-0.0548 ± 0.14
N193P	0.0542 ± 0.082	0.102 ± 0.13
N193H	-0.0702 ± 0.096	-0.159 ± 0.068
N193Y	-0.411 ± 0.08	-0.224 ± 0.18
N193I	-0.421 ± 0.13	-0.252 ± 0.04
N193D	0.0395 ± 0.029	0.0243 ± 0.14
N193S	-0.0375 ± 0.035	-0.105 ± 0.18
N193T	-0.0817 ± 0.067	-0.0846 ± 0.26
N193V	-0.237 ± 0.042	-0.316 ± 0.17
N193A	-0.0711 ± 0.013	-0.12 ± 0.049
N193W	-0.331 ± 0.057	-0.399 ± 0.053
N193F	-0.148 ± 0.028	0.0167 ± 0.017
N193K	0.0064 ± 0.057	-0.0115 ± 0.031
N193R	-0.104 ± 0.085	-0.204 ± 0.16
N193C	-0.143 ± 0.11	-0.106 ± 0.059
N193M	-0.139 ± 0.042	-0.15 ± 0.071
N193L	-0.18 ± 0.049	-0.145 ± 0.11

Variant	selection coefficient against synonymous wild-type codons (log2) (methotrexate 8.8 µM)	selection coefficient against synonymous wild-type codons (log2) (methotrexate 44 µM)
N193Q	-0.0175 ± 0.075	-0.067 ± 0.12
N193E	0.00134 ± 0.026	-0.00226 ± 0.025
I196G	0.0251 ± 0.06	-0.014 ± 0.11
I196T	0.132 ± 0.047	0.0677 ± 0.072
I196N	0.141 ± 0.02	0.173 ± 0.073
I196R	0.00358 ± 0.079	0.0353 ± 0.081
I196C	0.102 ± 0.046	0.116 ± 0.04
I196A	0.0717 ± 0.044	-0.0214 ± 0.097
I196K	0.0903 ± 0.07	0.0381 ± 0.086
I196E	0.191 ± 0.037	0.18 ± 0.048
I196L	-0.0327 ± 0.038	0.0582 ± 0.12
I196Q	0.103 ± 0.036	0.0239 ± 0.084
I196S	0.0976 ± 0.033	0.0602 ± 0.064
I196M	-0.00528 ± 0.06	-0.0477 ± 0.071
I196P	0.0972 ± 0.059	0.00476 ± 0.16
I196W	0.188 ± 0.13	0.873 ± 0.069
I196V	0.0336 ± 0.024	-0.0115 ± 0.038
I196D	0.178 ± 0.02	0.151 ± 0.031
I196F	0.21 ± 0.04	0.853 ± 0.077
I196Y	-0.0705 ± 0.12	-0.00647 ± 0.064
